# Assay results reported in the BET-seq Pho4 binding data (Le et al. 2018).
# This is one part of the list. Values were computed here from the reads of four pooled replicates and scatter widely.
# Target: T1, Pho4 (S. cerevisiae) (UniProt P07270)
# T1 sequence: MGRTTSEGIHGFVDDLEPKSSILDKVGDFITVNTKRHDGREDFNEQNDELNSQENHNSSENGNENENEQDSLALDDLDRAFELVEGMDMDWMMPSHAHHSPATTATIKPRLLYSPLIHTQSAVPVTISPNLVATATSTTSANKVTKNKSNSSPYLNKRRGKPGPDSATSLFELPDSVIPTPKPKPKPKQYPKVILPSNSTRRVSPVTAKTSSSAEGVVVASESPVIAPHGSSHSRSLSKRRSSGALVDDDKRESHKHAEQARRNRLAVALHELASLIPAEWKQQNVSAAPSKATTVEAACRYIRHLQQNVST
# Assay: relative binding free energy (BET-seq); higher = weaker binding
# Details: reference: library average
row,Sequence,relative binding free energy [kcal/mol]
1,GATGACACGTGTCGGT,0.12
2,AGCGGCACGTGGGCTG,-0.24
3,GGGGTCACGTGGGTAG,0.06
4,TTGAACACGTGAAAGG,0.35
5,AAGAGCACGTGTCGTA,0.07
6,GCCCGCACGTGTGGGG,-0.04
7,GTGAGCACGTGGAGCT,-0.06
8,TCATGCACGTGTGGTT,0.02
9,GTGACCACGTGGGGTA,-0.21
10,TTATGCACGTGGCTGC,-0.1
11,AGTGTCACGTGTTTGC,-0.01
12,GTTCTCACGTGCGTGT,0.01
13,CATGTCACGTGCGGGA,0.03
14,TGTTGCACGTGATGTT,0.13
15,TTTGCCACGTGTGCTT,0.06
16,CTGGACACGTGGAAGT,0.1
17,GGTTTCACGTGGCTGT,0.22
18,GTTATCACGTGGTCTT,0.14
19,GAGTGCACGTGGGAAG,-0.02
20,GTTCGCACGTGGAAGT,-0.03
21,TAAGGCACGTGATGAG,0.07
22,TAAGGCACGTGGGAGT,-0.12
23,GAGTTCACGTGTCATG,0.38
24,AGAGTCACGTGGGGAC,-0.01
25,TTCCGCACGTGAGTTG,0.12
26,TTAGGCACGTGTCAGA,-0.07

row,Sequence,relative binding free energy [kcal/mol]
1,TTTGGCACGTGGTAGC,-0.02
2,CGGGCCACGTGGTTGC,0.04
3,GGGGTCACGTGGGCCA,-0.02
4,GAGTTCACGTGTAGTA,0.36
5,TTTAACACGTGGTTTT,0
6,TTTGACACGTGTGCAG,0.06
7,GTTTTCACGTGGACAT,0.36
8,CTTATCACGTGGTGGG,-0.01
9,TTGATCACGTGAGAGA,0.35
10,AAGTGCACGTGATGCT,0.21
11,TTTAACACGTGTCGGT,0.07
12,TTCGGCACGTGTATGA,-0.01
13,GGTGTCACGTGAATAG,0.28
14,AGCGGCACGTGATTGG,0.08
15,GTGTCCACGTGAGGGG,0.15
16,AGTTACACGTGAGTAT,0.32
17,GTTAGCACGTGTCTAT,0.08
18,GGTAGCACGTGTGATG,0.15
19,GGCTGCACGTGGTTTA,-0.1
20,AATTTCACGTGTTGTC,0.3
21,GTATTCACGTGTAAGT,0.25
22,AATGACACGTGGGATG,0.04
23,TGTGGCACGTGTGCGA,-0.08
24,TGAATCACGTGAGCGT,0.32
25,GGGATCACGTGGTAGA,0.24
26,GGAGACACGTGGGGTT,-0.13

row,Sequence,relative binding free energy [kcal/mol]
1,TATGCCACGTGGGAGG,-0.22
2,TGAGGCACGTGAAGGG,0.11
3,TTTGACACGTGGGCTG,-0.06
4,TTGATCACGTGGGCTT,-0.03
5,GGTATCACGTGGCTTT,0.15
6,TTTAGCACGTGGGCGT,-0.2
7,TCGTGCACGTGTAGGT,-0.01
8,GGAACCACGTGGAGGG,-0.1
9,CTGAGCACGTGAAGGG,0.23
10,AGGTGCACGTGTGAGC,0.07
11,GGAGTCACGTGTGGAC,0.19
12,AGATACACGTGGGGAA,-0.18
13,ATATTCACGTGTGGCG,0.17
14,ATGGTCACGTGCGGGA,-0.07
15,AGGTGCACGTGGACTG,-0.05
16,ATCGACACGTGTGGGG,0.05
17,CTGGACACGTGTCGGT,-0.02
18,GAGGTCACGTGGTGGC,0.2
19,AGTTTCACGTGGTATC,0.19
20,AAGGGCACGTGCAGTA,-0.18
21,TTAGTCACGTGATAAA,0.19
22,TGCCGCACGTGGAGGG,-0.23
23,TGCCACACGTGTTGTT,0.1
24,TTGAGCACGTGATACT,0.09
25,TAGAGCACGTGTTATG,-0.06
26,CGTGTCACGTGTTGTG,0.14

row,Sequence,relative binding free energy [kcal/mol]
1,TGTAGCACGTGGAAGT,-0.13
2,AAAGGCACGTGAGTGC,0.19
3,TGGTACACGTGCTTTT,0.03
4,TTTGTCACGTGGCTTC,0.01
5,GGTAGCACGTGAAATG,0.14
6,GGTAACACGTGAGGGG,0.22
7,GGCCACACGTGTGGTG,0.15
8,GTATTCACGTGGGTTG,0.18
9,GCCTTCACGTGGTAGT,0.3
10,TGAAGCACGTGCTGTG,-0.15
11,ATAATCACGTGCGTTG,0.19
12,GCGTACACGTGGGCTT,0.12
13,CAGCGCACGTGGTGGG,-0.19
14,TGGCTCACGTGTGTAG,0.32
15,TATATCACGTGTAGTC,0.07
16,GGTTTCACGTGGGACT,0.28
17,TCGTTCACGTGGGGTT,0.14
18,ATAGTCACGTGATATT,0.17
19,ATTATCACGTGTGGTG,0.19
20,TTTGCCACGTGGTTTT,-0.16
21,AGGGTCACGTGCCTTG,-0.09
22,GGTAGCACGTGGGATC,-0.22
23,GTTAACACGTGCGTTT,-0.09
24,TGGGCCACGTGTTTAT,0.05
25,ATCGTCACGTGGGGAA,0
26,GGTTTCACGTGGCTTG,0.26

row,Sequence,relative binding free energy [kcal/mol]
1,TCTTGCACGTGTGAGG,0.15
2,GCCTGCACGTGGGGGA,-0.16
3,TTTCGCACGTGATTGT,0.29
4,GGAGCCACGTGTGGGA,0.16
5,GTGTACACGTGATGAG,0.24
6,TTGGCCACGTGGTATA,-0.13
7,AGAAACACGTGGGATA,0.1
8,CTGAGCACGTGGTTTG,0.03
9,GGTTTCACGTGTGCAA,0.3
10,GTATGCACGTGTGGGA,0.1
11,GTTTACACGTGTAAGG,0.28
12,GTGGTCACGTGGCTGG,0.15
13,TGTATCACGTGAAAGT,0.38
14,CTGCTCACGTGATTTT,0.32
15,GGTTTCACGTGTACGT,0.34
16,CTGGGCACGTGATGTA,-0.04
17,CGGCGCACGTGGTCGG,-0.16
18,TGGAGCACGTGTGATG,0.02
19,TGTAGCACGTGAATAT,0.34
20,GTGGGCACGTGTATCG,0.01
21,GTGAACACGTGGTAGC,0.1
22,ACAGTCACGTGTGAGG,0.28
23,GCTAGCACGTGAGAGG,0.15
24,TGTATCACGTGCATAA,0.28
25,GTCTACACGTGGGGGG,0
26,TGTAGCACGTGCGCGG,-0.33

row,Sequence,relative binding free energy [kcal/mol]
1,TGATTCACGTGGCAGT,0.15
2,TTGGGCACGTGGCATA,-0.29
3,TTGTACACGTGCAGTG,0.15
4,TTTATCACGTGTCTTA,0.17
5,ATCTTCACGTGATGTA,0.19
6,ATTGGCACGTGGACAG,-0.14
7,AATTTCACGTGTGTGA,0.31
8,TTATTCACGTGAATGT,0.24
9,ATGTGCACGTGATTCT,0.11
10,GTCAACACGTGGGGGT,0.06
11,ATATGCACGTGAAAGT,0.03
12,GGGTGCACGTGTGGAA,0.05
13,TAGTTCACGTGCGTAT,0.27
14,GAGAGCACGTGAGAGT,0.2
15,TTCTGCACGTGGACGG,0
16,TGGGGCACGTGTCTAG,-0.08
17,AGGTCCACGTGGGGAA,-0.06
18,AGGAACACGTGGGTTG,-0.06
19,TCTAGCACGTGTGATG,-0.04
20,CTTGACACGTGATAGG,0.05
21,AACGGCACGTGAGGAG,0.12
22,TAGTGCACGTGAAGTG,0.34
23,ATTAACACGTGTGTTG,-0.13
24,TCAGGCACGTGGTAAT,-0.01
25,TAAAACACGTGGGTAT,-0.08
26,AATTGCACGTGCAGGT,-0.14

row,Sequence,relative binding free energy [kcal/mol]
1,GGTAGCACGTGACTGG,0.1
2,GGGAGCACGTGGGGCT,-0.24
3,TCTATCACGTGATATG,0.31
4,GGCGTCACGTGTAATT,0.24
5,TGTTGCACGTGGAGCA,-0.03
6,GGGTCCACGTGTATTA,0.04
7,TGTAACACGTGCTTGG,0.01
8,ATTCTCACGTGGAATT,0.31
9,TATGGCACGTGGTATC,-0.15
10,CGTGGCACGTGATAGT,-0.15
11,TTCATCACGTGTATGT,0.15
12,GGCTACACGTGTGGTG,0.3
13,TTTGGCACGTGTCTGG,-0.11
14,TGTGGCACGTGCTATT,-0.2
15,CTGAGCACGTGTGTTT,0.07
16,AGTTTCACGTGTGGTT,0.34
17,TTTAGCACGTGGAAGG,-0.02
18,AGGTACACGTGATGTT,0.17
19,TATTGCACGTGCGAGG,0.08
20,ATTTACACGTGTAATT,0.15
21,GTAAGCACGTGGGTTA,-0.22
22,AGCTACACGTGAGGGG,0.16
23,GTCGTCACGTGTTTGT,0.17
24,TTGGACACGTGGACGG,0.13
25,TGGCGCACGTGCGGTA,-0.16
26,GTTTGCACGTGTTTCA,0.12

row,Sequence,relative binding free energy [kcal/mol]
1,ATTAGCACGTGCGGGG,-0.2
2,TGGTCCACGTGCGGTT,-0.06
3,ATAGGCACGTGATAGT,-0.04
4,TGTGCCACGTGGTAGT,-0.16
5,TTTAACACGTGGCTAG,-0.07
6,TGGCTCACGTGTGGTC,0.23
7,TAGGGCACGTGGTGAA,-0.17
8,CGTTACACGTGAATGG,0.2
9,TTATTCACGTGGTAGA,0.2
10,GTAGACACGTGCTGTG,-0.01
11,GGCGGCACGTGGGTGG,-0.19
12,GATTACACGTGTATGT,0.2
13,ACTGGCACGTGGGCAG,-0.28
14,CTGAACACGTGGTTGA,0.04
15,TTTTTCACGTGCGGAC,0.3
16,GAGTTCACGTGGCGGT,0.39
17,TACTTCACGTGTTAGG,0.22
18,GAGAACACGTGTTTGT,-0.01
19,GGCCTCACGTGGTGGT,0.05
20,GATAGCACGTGGGCTG,-0.21
21,TTAGTCACGTGGGACT,0.05
22,GGATTCACGTGGTGTA,0.44
23,ATTTACACGTGTGTTG,0.11
24,GATCGCACGTGGTTAG,0.12
25,AGAGCCACGTGTTGGG,-0.06
26,TGGACCACGTGAAGGG,0.15

row,Sequence,relative binding free energy [kcal/mol]
1,GGAGCCACGTGGTGAT,-0.1
2,AGGCACACGTGTTTTG,0.12
3,ATTAACACGTGTGATG,0.13
4,AATGGCACGTGTTATG,-0.05
5,TGTTACACGTGCTAGG,-0.09
6,TCGGCCACGTGAGGTG,0.22
7,TTATGCACGTGCGCGA,-0.07
8,GTAATCACGTGCGTTG,0.04
9,TATTACACGTGGGCTG,0.08
10,GGTCGCACGTGGTTTA,-0.14
11,TATGCCACGTGGTTTT,-0.18
12,GGCGTCACGTGAGTGT,0.24
13,GGCTACACGTGGATGT,0.23
14,GGGCGCACGTGATTTG,0.09
15,GTGCTCACGTGTGGTA,0.15
16,GTGTGCACGTGTCCTG,0.11
17,TCTAGCACGTGTAGGG,-0.11
18,GATTGCACGTGTGGGT,0.16
19,CTCTTCACGTGTTTTA,0.33
20,TTAAACACGTGTCAGG,0.06
21,TGTTTCACGTGGTTGA,0.21
22,GTTAACACGTGGCTTA,0.12
